According to PubChem BioAssay AID588342 (National Center for Advancing Translational Sciences (NCATS), 2011):
Several values for one entry are separate records, joined by “and”; a condition that tells them apart may be missing. Equal entries are not always repeated. About 25,000 (6.9%) of roughly 360,000 compounds were called active. This list was built around the results that the source calls inconclusive (neither active nor inactive); the mix of calls is not that of the screen. The call rests on the fitted dose curve; in most records, active means well fitted inhibition curve with a large enough effect; inconclusive means small, poorly fitted or top-dose-only effect; inactive means flat fitted curve, though single readings scatter. Potencies of inconclusive entries are doubtful fits and often do not repeat.

target: Luciferin 4-monooxygenase (Photinus pyralis) (UniProt P08659); experiment: qHTS profiling assay for firefly luciferase inhibitor/activator using purifed enzyme and Km concentrations of substrates (counterscreen for miR-21 project); conditions: purified FLuc, luminescence inhibition; activity change, negative = inhibition: at 57.5 µM (top of the series); further: nearly all actives have a fitted effect of over 55% in size;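 on activity change, negative = inhibition: plate controls were vehicle for no effect and reference inhibitor for full effect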
Sequence of UniProt P08659 (P08659 whole entry, looked up): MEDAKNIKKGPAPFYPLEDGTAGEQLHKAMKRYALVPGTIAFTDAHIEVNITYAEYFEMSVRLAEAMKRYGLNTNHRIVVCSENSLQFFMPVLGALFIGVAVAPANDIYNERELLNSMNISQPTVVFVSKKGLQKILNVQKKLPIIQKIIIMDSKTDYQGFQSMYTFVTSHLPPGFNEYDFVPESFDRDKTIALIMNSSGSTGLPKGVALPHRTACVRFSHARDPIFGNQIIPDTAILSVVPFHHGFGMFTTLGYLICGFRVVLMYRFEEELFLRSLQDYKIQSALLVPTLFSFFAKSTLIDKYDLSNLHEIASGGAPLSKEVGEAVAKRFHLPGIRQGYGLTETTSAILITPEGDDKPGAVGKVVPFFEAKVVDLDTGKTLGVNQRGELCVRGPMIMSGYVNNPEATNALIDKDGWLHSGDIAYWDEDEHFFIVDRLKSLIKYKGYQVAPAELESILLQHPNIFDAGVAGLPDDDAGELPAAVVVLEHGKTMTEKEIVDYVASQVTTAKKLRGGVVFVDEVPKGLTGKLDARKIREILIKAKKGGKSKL
In short: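 Purified P. pyralis luciferase (10nM final) with 10uM D-luciferin and 10uM ATP (Km levels) in 50mM Tris acetate pH 7.5, 10mM Mg acetate, 0.01% Tween-20, 0.05% BSA; qHTS 6-point titration, ~60 µM downward; luminescence read.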
Potency means the concentration at half of the fitted maximal effect; tags describe the fitted curve by direction and shape.

SMILES	activity change, negative = inhibition	Potency
O=C(Nc1nc2ccc(C(=O)N3CCCCC3)cc2s1)C1CCCCC1	inactive: -12.2%	–
COc1ccc(/C=C(\C#N)C(=O)C(C)(C)n2cncn2)cc1	–	inconclusive: 30.1 µM [inhibitor, partial curve, poor fit]
COc1ccccc1/C=C/C(=O)NC(=S)N1CCN(C)CC1	–	inconclusive: 37.9 µM [inhibitor, partial curve, poor fit]
Cc1ccc(NC(=O)C[n+]2ccn(C3=C([O-])c4ccccc4C3=O)c2)cc1	–	inconclusive: 23.9 µM [inhibitor, partial curve, poor fit]
COc1ccc(C2C(=O)N(C3CCC(C)CC3)CC(=O)N2CCC2=CCCCC2)cc1OC (centres undefined)	inactive: 2.67%	–
COC(=O)c1oc2ccccc2c1N	–	inconclusive: 19 µM [inhibitor, single point]
CCOC(=O)c1cnc(SCc2ccccc2)nc1N	–	active: 2.13 µM
O=C(O)[C@H]1CCCC[C@H]1C(=O)Nc1ccc(Nc2ccccc2)cc1	–	inconclusive: 30.1 µM [inhibitor, partial curve, poor fit]
CC(/C=C/c1ccco1)=N\NC(=O)C(O)c1ccccc1 (centres undefined)	–	inconclusive: 23.9 µM [inhibitor, partial curve, poor fit]
CCc1ccc(N(C)S(=O)(=O)c2ccc3[nH]cc(C(=O)NCC4CCCO4)c(=O)c3c2)cc1 (centres undefined)	–	inconclusive: 23.9 µM [inhibitor, partial curve, poor fit]
COc1ccc(Br)cc1C(=O)NC(=S)Nc1ccc(CN2CCOCC2)cc1	inactive: -11.6%	–
Cc1ccc2cc(COC(=O)C3CCCO3)c(=O)[nH]c2c1 (centres undefined)	–	inconclusive: 23.9 µM [inhibitor, partial curve]
Cc1ccc(Nc2nnc(SCC(=O)Nc3cc(C(=O)O)ccc3C)s2)c(C)c1	–	inconclusive: 30.1 µM [inhibitor, partial curve, poor fit]
CC(=O)Nc1ccc(Nc2nnc(-c3ccc(C)c(S(=O)(=O)NCCO)c3)c3ccccc23)cc1	–	inconclusive: 23.9 µM [inhibitor, single point]
CCOC(=O)c1ccc(NC(=O)Oc2ccccc2)cc1	–	inconclusive: 23.9 µM [inhibitor, single point]
c1ccc(-c2nccc(-c3ccc4c(c3)OCO4)n2)cc1	–	active: 19 µM
CC(Nc1nc2ccccc2n2cnnc12)c1ccccc1 (centres undefined)	–	inconclusive: 37.9 µM [inhibitor, partial curve, poor fit]
CCOC(=O)CN1C(=O)S/C(=C\c2ccc(-c3ccc(C(=O)O)c(Cl)c3)o2)C1=O	inactive: -9.04%	–
O=c1oc2ccccc2c2c1nc(C(F)(F)F)n2-c1ccccc1	inactive: 3.21%	–
O=[N+]([O-])c1ccc(O)c(/C=N/Nc2nc3ccccc3[nH]2)c1	–	inconclusive: 26.9 µM [inhibitor, single point]
CCc1cccc(CC)c1NC(=O)c1cccc(NC(=O)c2ccccc2)c1	–	inconclusive: 23.9 µM [inhibitor, single point]
NC1=NC(=O)/C(=C/c2ccc(OCC(=O)O)cc2)S1	–	inconclusive: 37.9 µM [inhibitor, partial curve, poor fit]
CSc1cccc(NC(=O)COC(=O)C2CCN(S(=O)(=O)c3ccccc3)CC2)c1	inactive: -1.77%	–

SMILES	activity change, negative = inhibition	Potency
CCC(=O)Nc1ccc(Nc2ccccc2)cc1	–	inconclusive: 13.5 µM [inhibitor, partial curve, poor fit]
N#C/C(=C/c1cccc([N+](=O)[O-])c1)C(=O)Nc1ccccc1O	–	inconclusive: 37.9 µM [inhibitor, single point]
C/C(=N\Nc1cccc(Cl)c1)c1ccncc1	–	inconclusive: 21.3 µM [inhibitor, partial curve]
Cc1ccc(C)c(NC(=O)Nc2ccc3c(c2)OCO3)c1	–	inconclusive: 19 µM [inhibitor, partial curve]
COc1ccc(-c2cc(=O)oc3c(C)c(OCC(=O)N[C@@H](Cc4ccc(O)cc4)C(=O)O)ccc23)cc1	–	inconclusive: 23.9 µM [inhibitor, single point]
O=C(Nc1nnc(SCc2cc(=O)n3cc(Cl)ccc3n2)s1)c1cccc(F)c1	–	inconclusive: 30.1 µM [inhibitor, partial curve, poor fit]
Cc1ccc2nc(C)c(C(=O)N/N=C/c3cccs3)cc2c1	–	inconclusive: 6.75 µM [inhibitor, single point]
CCOC(=O)c1c[nH]n(-c2ccc(C)cc2)c1=O	–	inconclusive: 37.9 µM [inhibitor, partial curve, poor fit]
CCC(C(=O)N1CCN(c2ccccc2)CC1)n1nc(C)c2sc3ccccc3c2c1=O (centres undefined)	–	inconclusive: 21.3 µM [inhibitor, partial curve]
COc1ccc(-c2nnc(-c3ccc(F)cc3)o2)cc1	–	active: 2.13 µM
CCOC(=O)c1sc2nc(CC(=O)OC)nc(N3CCN(c4ccccn4)CC3)c2c1C	inactive: -2.29%	–
COc1ccc(S(=O)(=O)Nc2c(C(=O)O)[nH]c3ccccc23)cc1OC	–	inconclusive: 30.1 µM [inhibitor, partial curve, poor fit]
O=C(c1cc(COc2ccc(F)cc2Cl)on1)N1CCc2ccccc2C1	–	inconclusive: 30.1 µM [inhibitor, partial curve, poor fit]
CCOc1ccc(N2CC(c3nc4ccccc4n3CCOc3ccc(CC)cc3)CC2=O)cc1 (centres undefined)	inactive: -2.36%	–
N#Cc1ccsc1NC(=O)CCS(=O)(=O)c1ccccc1	inactive: 0.233%	–
C=C(C)C(=O)OCC(=O)NCc1ccccc1	–	inconclusive: 21.3 µM [inhibitor, partial curve, poor fit]
CCCC(=O)Nc1ccc(C(=O)/C=C/c2ccc(SC)cc2)cc1	–	inconclusive: 4.26 µM [inhibitor, full curve]
CCCc1cc(=O)[nH]c(SCC(=O)NC2(C#N)CCCCC2)n1	inactive: 4.81%	–
COc1ccc(NC(=O)CN2C(=O)C3(SCC(=O)N3c3cccc(OC)c3)c3ccccc32)cc1 (centres undefined)	inactive: -9.09%	–
CCOC(=O)C1=C(COC(=O)c2cccc(N(C)C)c2)NC(=O)NC1C (centres undefined)	–	active: 23.9 µM
CCCCC(=O)Nc1ccc(NC(=S)NC(=O)CC(C)C)cc1OC	inactive: 13.6%	–
COc1ccc(Nc2oc(-c3ccccc3)nc2C#N)cc1	–	inconclusive: 2.69 µM [inhibitor, partial curve]
O=C(COc1ccccc1F)Nc1nnc(C2CCCC2)s1	–	inconclusive: 26.9 µM [inhibitor, partial curve, poor fit]

SMILES	activity change, negative = inhibition	Potency
O=C(NC(=S)N(CCO)Cc1ccccc1)c1cc(Br)ccc1Cl	–	inconclusive: 19 µM [inhibitor, partial curve, poor fit]
Brc1ccc(-c2cnc(-c3cccs3)o2)cc1	–	active: 5.36 µM
CC(=O)Nc1ccc(NS(=O)(=O)c2c(Cl)cccc2Cl)cc1	inactive: 4.81%	–
CCCCCCCCCn1ccc(=N)cc1	inactive: -0.804%	–
COc1ccc(N2CCN(c3cc(C)nc4nncn34)CC2)cc1	inactive: -7.53%	–
CCc1ccc2nc(N3C(=O)C(O)=C(C(=O)c4ccco4)C3c3cccs3)sc2c1 (centres undefined)	–	inconclusive: 16.9 µM [inhibitor, partial curve]
CC1=C(C(=O)Nc2cccc(C(F)(F)F)c2)C(c2ccccc2)n2ncnc2N1 (centres undefined)	inactive: 3.67%	–
O=c1[nH]c2ccc(Cl)cc2c(O)c1-c1ccccc1	–	active: 9.53 µM
Cc1ccc(SCC(=O)NC(=O)NCc2ccco2)cc1C	inactive: 2.79%	–
O=C(CSc1ccc(-c2cccs2)nn1)NCc1ccccc1Cl	–	inconclusive: 26.9 µM [inhibitor, partial curve, poor fit]
CC(=O)c1cn(N2CCCCC2)c(=O)[nH]c1=O	inactive: -1.04%	–
Cn1ncc([N+](=O)[O-])c1C(=O)n1nnc2ccccc21	–	inconclusive: 37.9 µM [inhibitor, single point]
Cc1ccc(CCNC(=O)c2ccc(CS(=O)(=O)Cc3ccccc3F)o2)cc1	–	inconclusive: 33.8 µM [inhibitor, partial curve, poor fit] and inconclusive: 23.9 µM [inhibitor, partial curve, poor fit]
Cc1c(Cc2ccccc2)c(=O)n2c([nH]c3ccccc32)c1C#N	inactive: 5.43%	–
O=S(=O)(Nc1ccc(Cl)cc1)c1cccc(S(=O)(=O)c2ccc(Cl)c(Cl)c2)c1	–	inconclusive: 12 µM [inhibitor, partial curve]
Cc1cc(C)cc(CC2CC(=O)N(c3nc(C)cc(C)n3)C2=O)c1 (centres undefined)	–	active: 21.3 µM
Cc1ccc(C)c(N2CCN(CCCNC(=O)Nc3ccc(Cl)cc3)CC2)c1	inactive: 1.01%	–
COC(=O)c1cc(NC(=O)c2cc3ccccc3o2)cc(C(=O)OC)c1	–	inconclusive: 12 µM [inhibitor, partial curve, poor fit]
CC(C)[C@H](NC(=O)c1cccc(S(=O)(=O)N2CCOCC2)c1)C(=O)Nc1nc2ccccc2s1	–	inconclusive: 12 µM [inhibitor, partial curve]
O=C(COC(=O)CSc1nnc(-c2ccc(Cl)cc2)o1)Nc1cc(Cl)cc(Cl)c1	–	inconclusive: 26.9 µM [inhibitor, single point]
Cc1ccc(NC(=O)Nc2cnc3ccccc3c2)cc1	–	inconclusive: 2.69 µM [inhibitor, full curve]
CC(C)(C)c1cc(=O)[nH]c(SCc2ccccc2)n1	–	inconclusive: 26.9 µM [inhibitor, partial curve, poor fit]
Cc1ccc(N(C)S(=O)(=O)c2cccc(C(=O)Nc3nnc(C4CC4)s3)c2)cc1	–	inconclusive: 21.3 µM [inhibitor, partial curve]
